Measurements from paper PMC5951580, “The effect of acylation with fatty acids and other modifications on HLA class II:peptide binding and T cell stimulation for three model peptides” (PLoS ONE, 2018).

System: 26 HLA class II molecules (HLA DRB1, DRB3/4/5, DP and DQ allelic variants)
Experiment: Competition binding of peptides to purified HLA class II molecules (inhibition of a radiolabeled peptide)
Conditions: binding = IC50 of 1000 nM or better, two-day incubation, three or more independent experiments

Peptide 7: Exendin-4 (1–39), 39-aa peptide used for the treatment of diabetes mellitus type 2, non-acylated [reference compound]
Number of HLA class II alleles bound (of 26 tested): seven
